The campaign covered roughly 360,000 compounds. About 11,000 (3.1%) were called active. The inconclusive results got no clear call from the source; some entries with a clear call stand among them for comparison. Calls come from the whole dose curve; as a rule, active = well fitted inhibition curve with a large enough effect; inconclusive = small, poorly fitted or top-dose-only effect; inactive = no such curve, though single readings can be large or run the other way. Potencies of inconclusive entries are left out as doubtful fits. A structure can be active in one record and inactive in another.
The molecules below were run against Schistosoma mansoni thioredoxin glutathione reductase (TGR) (UniProt Q962Y6) (assay: qHTS Assay for the Inhibitors of Schistosoma Mansoni Peroxiredoxins). Conditions: purified TGR, DTNB reduction, TNB absorbance 405 nm; activity change, negative = inhibition: at 114 µM (top of the series) unless noted.
Method in brief: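 TGR 20 nM + NADPH 100 uM (dispensed conc.), cpd preinc 15 min RT; start with NADPH (500 uM addition) then DTNB (15 mM addition). Kinetic TNB absorbance, 405 nm filter. Four-parameter Hill fit across titration.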
For Cc1ccn2cc(C(=O)NCc3ccco3)nc2c1, the Potency was inconclusive [inhibitor, partial curve, poor fit]. In the case of C=CCOc1ccc(C2/C(=C(\O)c3c(C)[nH]c(C(=O)OC)c3C)C(=O)C(=O)N2CCN(C)C)cc1 (centres undefined), the Potency is reported as inconclusive [inhibitor, partial curve]. CC1CCc2c(sc(/N=C/c3ccco3)c2C(N)=O)C1 (centres undefined) was tested, and the Potency was inconclusive [inhibitor, partial curve]. With CN(C)S(=O)(=O)c1ccc(/C(O)=C2/C(=O)C(=O)N(Cc3cccnc3)C2c2ccncc2)cc1 (centres undefined) the Potency was inconclusive [inhibitor, full curve, poor fit]. With CC(CN1CCCC1)OC(=O)c1cccc(F)c1 (centres undefined) the Potency was inconclusive [inhibitor, partial curve, poor fit]. With CN(Cc1cnccn1)C(=O)CC1C(=O)NCCN1Cc1cccc(F)c1 (centres undefined) the Potency was inconclusive [inhibitor, partial curve]. With CCN(CCO)Cc1cc(=O)oc2c(C)c(C)ccc12 the Potency was inconclusive [inhibitor, partial curve]. For Cc1ccc(S(=O)(=O)N2CCN(C)CC2)cc1C(=O)NC1CCCCC1, the Potency was inconclusive [inhibitor, full curve, poor fit]. In the case of N#CC1=C(N)Oc2n[nH]c(-c3cccs3)c2C1C1C=CCCC1 (centres undefined), the Potency is reported as inconclusive [inhibitor, full curve]. For CSc1nc(NCC(C)C)c2c3c(sc2n1)CN(C)CC3, the “activity change, negative = inhibition” value was inactive: -29.6%. With Cc1ccccc1N1CCN(C2CCCN(C(=O)c3snnc3C)C2)CC1 (centres undefined) the “activity change, negative = inhibition” value was inactive: -35.8%. With COC(=O)C1=C(C)NC(C)=C(C(=O)OCC2CCCO2)C1c1ccc(Cl)c([N+](=O)[O-])c1 (centres undefined) the “activity change, negative = inhibition” value was inactive: 4.86%. In the case of CC(=O)N(c1nc(CCl)cs1)c1ccc(C)cc1C, the Potency is reported as inconclusive [inhibitor, full curve, poor fit]. CCN(CCCNC(=O)C1CCN(S(=O)(=O)N2CCOCC2)CC1)c1cccc(C)c1 was tested, and the Potency was inconclusive [inhibitor, full curve, poor fit]. CCC(CC)C(=O)N1N=C(c2ccc(NS(C)(=O)=O)cc2)CC1c1ccc(C)cc1 (centres undefined) was tested, and the “activity change, negative = inhibition” value was inactive: -5.59%. In the case of Cn1c(SCC(=O)NCc2ccco2)nnc1-c1ccc(S(=O)(=O)N2CCOCC2)cc1, the Potency is reported as inconclusive [inhibitor, partial curve]. For Cc1c(C)c2ccc(OCC(=O)N3CCN(C(=O)C4COc5ccccc5O4)CC3)cc2oc1=O (centres undefined), the “activity change, negative = inhibition” value was inactive: -12%. For COC(=O)C(C(=O)NCC1CCCO1)C1CCCC1 (centres undefined), the Potency was inconclusive [inhibitor, single point]. For CCOC(=O)N1CCC(Nc2c(-c3ccccc3)c(=O)c2=O)CC1, the Potency was active: 44.7 µM. With O=C1c2ccc([N+](=O)[O-])cc2S(=O)(=O)N1Cc1ccccc1 the Potency was active: 17.8 µM. With CCCCCCCC(=O)N/N=C/c1ccc([N+](=O)[O-])o1 the Potency was inconclusive [inhibitor, partial curve]. In the case of COc1cccc(/C=C(\CC(=O)O)c2nc3ccccc3s2)c1, the “activity change, negative = inhibition” value is reported as inactive: -11.2%. COCCNC(=O)C(=O)N/N=C(\C)CC(=O)Nc1ccc2c(c1)OCO2 was tested, and the Potency was inconclusive [inhibitor, partial curve]. Cc1ccc(Cn2nc(C(=O)Nc3ccc(Br)cc3)cc2C)cc1 was tested, and the “activity change, negative = inhibition” value was inactive: 13.1%. CCC(=O)C1CCCN(C(=O)CCc2nnc(-c3ccc(C(C)=O)s3)o2)C1 (centres undefined) was tested, and the Potency was inconclusive [inhibitor, partial curve]. For COc1cc(/C=N/NC(=O)c2cc(-c3cccn3C)n[nH]2)cc(OC)c1OC, the Potency was inconclusive [inhibitor, single point]. With COc1ccc(N(C)S(=O)(=O)c2c(C)[nH]c(=O)[nH]c2=O)c(OC)c1 the Potency was inconclusive [inhibitor, partial curve]. For CCOC(=O)c1ccc(NC(=S)NCc2ccc(S(N)(=O)=O)cc2)cc1, the Potency was inconclusive [inhibitor, single point]. For Cn1nc(C(=O)N2CCN(c3ccc([N+](=O)[O-])cc3)CC2)c2c1-c1ccccc1S(=O)(=O)C2, the “activity change, negative = inhibition” value was inactive: 1.62%. In the case of CCN(CC)S(=O)(=O)c1cccc(NC(=O)COc2ccc(F)cc2Br)c1, the “activity change, negative = inhibition” value is reported as inactive: -2.42%. For COc1cccc(C(=O)NCCc2csc3nc(-c4ccccc4F)nn23)c1OC, the Potency was inconclusive [inhibitor, single point]. For Cc1ccccc1N(C)S(=O)(=O)c1nnc(NC(=O)c2ccco2)s1, the Potency was active: 25.1 µM. CCOc1ccc(CCNC(=O)c2cc3c(s2)CS(=O)(=O)C3)cc1OCC was tested, and the “activity change, negative = inhibition” value was inactive: 7.57%. COC(=O)c1ccc(NC(=O)CN2CCN(S(=O)(=O)c3cc(Cl)ccc3OC)CC2)cc1 was tested, and the Potency was inconclusive [inhibitor, partial curve]. In the case of COc1cc(C2CC(c3ccccc3)=NN2c2ccccc2)ccc1OCC(=O)O (centres undefined), the “activity change, negative = inhibition” value is reported as inactive: -15.2%. For O=C(CSc1ccccc1Cl)N1CCC(c2nc3ccccc3s2)CC1, the “activity change, negative = inhibition” value was inactive: 6.84%. For CCOc1cc(/C=C2\CCCc3c2nc2ccccc2c3C(=O)O)ccc1OC, the Potency was inconclusive [inhibitor, full curve]. CC[C@]1(c2ccccc2C)ON(c2ccccc2C(F)(F)F)C1=O was tested, and the Potency was active: 56.2 µM. In the case of CCCCOc1ccc(C(=O)N/C(=C/c2cccc([N+](=O)[O-])c2)C(=O)O)cc1, the Potency is reported as inconclusive [inhibitor, partial curve]. With O=C(CSc1ccc(-c2ccco2)nn1)NCc1ccccc1 the Potency was active: 35.5 µM. With CC(=O)C1C(=O)c2c(cccc2[N+](=O)[O-])C1=Nc1cccc(Cl)c1 (centres undefined) the Potency was inconclusive [inhibitor, partial curve]. For Cc1ccc(C2c3[nH]c4ccccc4c3C[C@H]3C(=O)N(c4ccccc4C(=O)N4CCC[C@H]4C(=O)O)C(=O)N23)cc1 (some centres undefined), the “activity change, negative = inhibition” value was inactive: -0.0894%. In the case of C/C(=N/NC(=O)c1ccc(C)s1)c1cccc(NC(=O)c2ccoc2C)c1, the Potency is reported as inconclusive [inhibitor, single point]. Cn1c(C(=O)NCCN2CCCCCC2)cc2c(=O)n(C)c3ccccc3c21 was tested, and the Potency was inconclusive [inhibitor, full curve, poor fit].

Reference: PubChem BioAssay AID485364 (National Center for Advancing Translational Sciences (NCATS), 2010)
% is set by controls: 0 for no effect and ±100 for the full control effect; potency is the fitted concentration of half-maximal effect; tags give direction and shape of the fitted curve.
Note: nearly all actives have a fitted effect of over 60% in size.
